Read counts are not given, so values of variants with three or more changes are uncertain.

The chains are these.
B1: CPEB3 Ribozyme (parent)
chain: UAACAGGGGGCCACAGCAGAAGCGUUCACGUCGCAGCCCCUGUCAGAUUCUGGUGAAUCUGCGAAUUCUGCUGUAUAUCUC

The variants in this data set derive from B1. As to the kind of experiment: self-cleavage, relative activity (ratio to wild type); higher = more cleavage; in vitro, sequencing. The gist of the method: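 Libraries of CPEB3 self-cleaving ribozyme mutants came from rounds of error-prone PCR and carried barcodes, which DNA sequencing matched to variants. In vitro transcription used T7 RNA polymerase at 37°C for 5 hours, with a further 15 min in DNase I before EDTA stopped the reaction; the ribozymes cleaved during both steps. The RNA was reverse transcribed with template switching and sequenced on Illumina. Relative activity is the cleaved/total read fraction of a variant divided by that of the unmutated ribozyme, averaged over three batches with at least 5 reads.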
On to A5G A18C U66C G70U, for which the self-cleavage was determined as 0.03.
Next, A5G A20G U41A U78C: 0.36; A5G C23A U41C: 0.44.
In the case of A5G A13G A28U U51A C62U U80C, the self-cleavage was 0.09.
Consider A5G C12A A15G U58C, for which the self-cleavage amounted to 0.
For the variant A5G C32U G63C U80C, the self-cleavage worked out at 0.41.
As for A5G C12A A28U C32U U72A, the self-cleavage is 0.07.
Regarding A5G A15G A18G A75G U78C, the self-cleavage was determined as 0.14.
On to A5G G8U A20G A77U, for which the self-cleavage worked out at 0.35.
Next, A5C A18G G36C: 0.33; A5G A20G A28U G42A: 0.05.
Consider A5C C17U C23U A65U, for which the self-cleavage stood at 0.22.
Regarding A5G A18U C34U C62G, the self-cleavage was found to be 0.39.
In the case of A5G G8A U43C U51A C68U, the self-cleavage was determined as 0.05.
A5G C17A A65U: the self-cleavage came out at 0.28.
Consider A5G A15G G16A U31C U43A, for which the self-cleavage amounted to 0.12.
Regarding A5G U25A U72C U74C, the self-cleavage worked out at 0.05.
The figure for A5G A13G C62U G73A is 0.37; for A5G G9A A13U it is 0.41.
On to A5G A18U U41C A56G U69C, for which the self-cleavage came to 0.16.
On to A5G U25C C44A U49C U69C, for which the self-cleavage was determined as 0.14.
Take A5G G19C U43C U54A U58G C62U U80C: the self-cleavage was found to be 0.18.
A5C G36U U41A A47G: the self-cleavage amounted to 0.13.
Next, A5G A35G U60A G63U U72C: 0.86.
As to A5G A15G A45G, the self-cleavage came to 0.46.
Next, A5G A18G A35G A47G C62A: 0.14; A5G A15U U41C U48C U60A U72G: 0.2; A5G G9A U69C: 0.14.
Take A5G A57G U76C: the self-cleavage was 0.72.
The figure for A5G G10U U80C is 0.69; for A5G A18G U51G U54A it is 0.49; for A5G A13G A21G it is 0.6.
Consider A5G A56G U66C, for which the self-cleavage was found to be 0.23.
Turning to A5G G16A A20G A28U U41C U67C G70C, the self-cleavage was determined as 0.13.
In the case of A5G G61A A77U, the self-cleavage was determined as 0.23.
The figure for A5G G9C A20U U49C U51A A77G is 0.23.
As to A5G G9A G10A G24A U25A U51G, the self-cleavage is 0.08.
Turning to A5G A13U A21G U31C A45U, the self-cleavage was found to be 0.7.
Next, A5G C11G A13U U49G U60C U78C U80C: 0.08; A5C A20G U72A: 0.32; A5C G10A U41A A47G: 0.06.
As to A5G G42A C44G U72C, the self-cleavage was found to be 0.62.
Next, A5G G7U G10A A15U G19U: 0.25; A5G A47U U54C U72G A75G: 0.08; A5G A28G C59G U60C C62U: 0.07.
Consider A5C A18U G24U, for which the self-cleavage was 0.35.
Next, A5G C40A A45G U60C: 0.21; A5G G8A C14U: 0.47.
As for A5G A18U G19A U43C U58C, the self-cleavage was determined as 0.08.
Turning to A5G C12U A21G U31A A64G U76C, the self-cleavage stood at 0.11.
In the case of A5G A28G C39U C44U A77G, the self-cleavage amounted to 0.09.
Consider A5G A20U U26C, for which the self-cleavage came to 0.45.
With A5G A20U C27U, the self-cleavage came to 0.23.
As for A5G G9A C39A G42U U51A U66C, the self-cleavage came to 0.06.
Take A5G A47G U66C: the self-cleavage turned out to be 0.4.
Regarding A5G C23G A28G U31A C40U U51C, the self-cleavage amounted to 0.06.
With A5G C11U A56G, the self-cleavage came to 0.14.
As for A5G A13G A45G A65G, the self-cleavage is 0.43.
Turning to A5G C23U C40A U78C, the self-cleavage came out at 0.31.
With A5C A21G U31C U41C U43C A65G, the self-cleavage came to 0.26.
With A5G A15G A28G G55U A56U U69C, the self-cleavage was found to be 0.34.
Take A5G C40U U49C U54C G55U: the self-cleavage turned out to be 0.34.
On to A5G A13U A28C U66C, for which the self-cleavage turned out to be 0.
Consider A5G A21G A35G, for which the self-cleavage turned out to be 1.03.
Consider A5G G8A A15G A28U U51C, for which the self-cleavage stood at 0.25.
Consider A5G U25C C27A U31A A35G A45G A57G, for which the self-cleavage amounted to 0.56.
Regarding A5G A13G A45G A65G U72A, the self-cleavage is 0.24.
A5G G6A G9A U25A U43A: the self-cleavage is 0.08.
As to A5G G10A C27U A64G U78C, the self-cleavage worked out at 0.09.
Take A5G A35G U41C A75U: the self-cleavage stood at 1.21.
Consider A5G A21G A35G U48C U78C, for which the self-cleavage was 0.46.
A5G G9C C40U U54A U80C: the self-cleavage was 0.4.
Turning to A5G A28G U72C A75G, the self-cleavage stood at 0.55.
Consider A5G G19U U25G, for which the self-cleavage is 0.33.
Next, A5G A15G A45G U48C U49C: 0.17; A5G C29A A45G: 0.15; A5G G30U C39A U51A: 0.2.
The figure for A5G A47G U58A U72C U78C is 0.28.
Regarding A5G A18U U25C U41A U74C, the self-cleavage amounted to 0.67.
Next, A5C A20U A64G: 0.19; A5G C40U A47G: 0.5; A5G A35U A65U U66A: 0.09.
On to A5G G33A U66C A75G, for which the self-cleavage amounted to 0.07.
As to A5G C29U U41C U51A U69A U76C, the self-cleavage was determined as 0.13.

These data come from the RNAGym collection of RNA variant scans (doi:10.1093/nar/gkz1192).
